We go through 195 variants from a collection of fitness landscapes (doi:10.1126/science.1257360).

This is one part of the list.

The chains are these.
B1: PhoQ; a variant is named by its letters at X, in order, P23837 (parent)
chain: MKKLLRLFFPLSLRVRFLLATAAVVLVLSLAYGMVALIGYSVSFDKTTFRLLRGESNLFYTLAKWENNKLHVELPENIDKQSPTMTLIYDENGQLLWAQRDVPWLMKMIQPDWLKSNGFHEIEADVNDTSLLLSGDHSIQQQLQEVREDDDDAEMTHSVAVNVYPATSRMPKLTIVVVDTIPVELKSSYMVWSWFIYVLSANLLLVIPLLWVAAWWSLRPIEALAKEVRELEEHNRELLNPATTRELTSLVRNLNRLLKSERERYDKYRTTLTDLTHSLKTPLXXLQXXLRSLRSEKMSVSDAEPVMLEQISRISQQIGYYLHRASMRGGTLLSRELHPVAPLLDNLTSALNKVYQRKGVNISLDISPEISFVGEQNDFVEVMGNVLDNACKYCLEFVEISARQTDEHLYIVVEDDGPGIPLSKREVIFDRGQRVDTLRPGQGVGLAVAREITEQYEGKIVAGESMLGGARMEVIFGRQHSAPKDE

The variants in the test derive from B1. Put plainly: enrichment ratio after two sorts for PhoP signalling (ratio (wild type AVST 3.29)); higher = more functional. As to conditions: with PhoP (E. coli).
With GPAG, the enrichment ratio was not above 0.25. As to NYVL, the enrichment ratio is not above 0.25. With NPSY the figure was not above 0.25; with DCES, not above 0.25. Consider AENY, for which the enrichment ratio came out at 5.26.

QIFP: the enrichment ratio was not above 0.25.

Take FQYH: the enrichment ratio is not above 0.25. Regarding APGG, the enrichment ratio was not above 0.25. Turning to FVLD, the enrichment ratio was not above 0.25.

Take NIAA: the enrichment ratio was not above 0.25. The figure for LVFC is not above 0.25; for IHAN it is not above 0.25; for WTQY it is not above 0.25. The figure for IHHQ is not above 0.25; for HMPA it is not above 0.25. With HTVL the figure was 0.699; with PPYD, not above 0.25. On to YEAE, for which the enrichment ratio is not above 0.25. With ISWG the figure was not above 0.25. The figure for VTAK is not above 0.25.

Consider GMRD, for which the enrichment ratio is not above 0.25.

With RRCK, the enrichment ratio is not above 0.25.

Regarding AGTG, the enrichment ratio was 4.46.

For IMSH, the enrichment ratio is not above 0.25. The figure for ETWH is not above 0.25; for QGIQ it is not above 0.25. With IVRQ the figure was not above 0.25; with HWHA, not above 0.25; with WSNH, not above 0.25. With EEDI the figure was not above 0.25; with KDTY, not above 0.25. As for QFHN, the enrichment ratio was not above 0.25. Regarding KFDE, the enrichment ratio was not above 0.25. The figure for GKYR is not above 0.25; for SNRC it is not above 0.25.

On to NCDM, for which the enrichment ratio was not above 0.25. PANN: the enrichment ratio was not above 0.25. The figure for DWSH is not above 0.25; for IHQP it is not above 0.25.

For the variant LGSY, the enrichment ratio was not above 0.25. With KVVC the figure was not above 0.25; with FNYA, not above 0.25; with QDMM, not above 0.25. With YRLF the figure was not above 0.25; with IRMR, not above 0.25.

Regarding DANH, the enrichment ratio was not above 0.25. As to QHTS, the enrichment ratio is not above 0.25.

Take QMQK: the enrichment ratio is not above 0.25. The figure for GRGM is not above 0.25; for YCCG it is not above 0.25.

On to MSLG, for which the enrichment ratio came out at 4.62. The figure for PQGD is not above 0.25; for TIPD it is not above 0.25.

Consider HYCK, for which the enrichment ratio is not above 0.25. The figure for SHMG is 17.8.

For the variant IPLV, the enrichment ratio is not above 0.25. With VEDS the figure was 0.659; with HNLQ, not above 0.25.

Take RKGH: the enrichment ratio is not above 0.25. Take PASG: the enrichment ratio was not above 0.25.

Consider KMIA, for which the enrichment ratio is not above 0.25.

Consider VMLP, for which the enrichment ratio is not above 0.25. Consider MERN, for which the enrichment ratio is not above 0.25. With WKKS the figure was not above 0.25.

Turning to DMRY, the enrichment ratio is not above 0.25. The figure for RIDR is not above 0.25; for FHDH it is not above 0.25; for NQCA it is not above 0.25. The figure for QKTG is not above 0.25; for GWCV it is not above 0.25. With PASD the figure was 0.521; with KLDC, not above 0.25; with FTAF, not above 0.25.

In the case of TCIG, the enrichment ratio was not above 0.25. The figure for MTFM is 17.1.

Regarding NHML, the enrichment ratio was not above 0.25. With NGYQ the figure was not above 0.25; with DQVV, not above 0.25.

With YHLH, the enrichment ratio was not above 0.25.

In the case of RCVT, the enrichment ratio was not above 0.25.

For the variant WIHP, the enrichment ratio was not above 0.25. For the variant MMQS, the enrichment ratio was not above 0.25. The figure for PRVI is not above 0.25; for KVFL it is not above 0.25. In the case of KEHC, the enrichment ratio was not above 0.25. The figure for KRDP is not above 0.25.

With DIER, the enrichment ratio was not above 0.25. The figure for EMAL is not above 0.25; for ATGG it is 5.79. With IKEP the figure was not above 0.25; with ELID, not above 0.25. The figure for WDLH is not above 0.25. For the variant QTLT, the enrichment ratio is not above 0.25.

As to MHMS, the enrichment ratio was not above 0.25. With LINW the figure was not above 0.25. The figure for SELV is 19.5; for PTKS it is not above 0.25; for PDTN it is not above 0.25. The figure for LHWY is not above 0.25. In the case of VWYH, the enrichment ratio is not above 0.25. On to KPTV, for which the enrichment ratio was not above 0.25. Turning to QFKR, the enrichment ratio is not above 0.25.

In the case of PIRQ, the enrichment ratio is not above 0.25. On to KVGW, for which the enrichment ratio is not above 0.25. With VSVH the figure was not above 0.25; with DSAQ, not above 0.25; with KRAF, not above 0.25. Take GRGD: the enrichment ratio is not above 0.25. As to LGWG, the enrichment ratio was not above 0.25. As for LCLP, the enrichment ratio is not above 0.25. The figure for WSIL is not above 0.25. With QSMW the figure was not above 0.25; with YNSR, not above 0.25. With MQMC the figure was not above 0.25. On to LDDG, for which the enrichment ratio was not above 0.25. In the case of AYPM, the enrichment ratio was not above 0.25. With IFGC the figure was not above 0.25.

In the case of GSYP, the enrichment ratio is not above 0.25. The figure for KHNP is not above 0.25. The figure for NCLR is not above 0.25; for THQF it is 5.14; for RRIC it is not above 0.25. Regarding SVRG, the enrichment ratio is not above 0.25.

Regarding FHAL, the enrichment ratio is not above 0.25.

For the variant YSKV, the enrichment ratio is not above 0.25.

As for KNIH, the enrichment ratio is not above 0.25. With NIVI the figure was not above 0.25.

For VDEA, the enrichment ratio is not above 0.25.

RNRT: the enrichment ratio was not above 0.25. With ISAM the figure was 0.753. The figure for TARN is not above 0.25; for ENFR it is not above 0.25; for YSTE it is not above 0.25. With SRPC the figure was not above 0.25; with YKMK, not above 0.25.

For the variant PQTW, the enrichment ratio was not above 0.25. Regarding MSDR, the enrichment ratio was not above 0.25. With MPNC the figure was not above 0.25; with PMNA, not above 0.25; with ACAW, 7.33. The figure for GTRK is not above 0.25. With LIFF the figure was not above 0.25; with TAQM, 2.23; with YIGW, 0.279.

Consider WSNC, for which the enrichment ratio is not above 0.25. With IWGV the figure was not above 0.25; with HPKM, not above 0.25. The figure for QQAK is not above 0.25; for FHWQ it is not above 0.25. The figure for AIGK is not above 0.25; for VRKP it is not above 0.25. Regarding PMHC, the enrichment ratio was not above 0.25. On to TDKS, for which the enrichment ratio was not above 0.25. As to AIFW, the enrichment ratio is not above 0.25. The figure for QSYL is 13.9; for TVSV it is 14.9. Take AKWY: the enrichment ratio is not above 0.25. With DCTN the figure was not above 0.25; with YHPS, not above 0.25. For EMHT, the enrichment ratio is not above 0.25.

Consider EMPM, for which the enrichment ratio is not above 0.25. With VVCV the figure was not above 0.25. The figure for WELA is not above 0.25.

As to RTME, the enrichment ratio was not above 0.25.

For the variant VVRQ, the enrichment ratio is not above 0.25. For the variant QHNQ, the enrichment ratio was 5.11. As to EISF, the enrichment ratio was not above 0.25. The figure for RFDH is not above 0.25. Take ADHA: the enrichment ratio is not above 0.25.

On to IVTM, for which the enrichment ratio is not above 0.25. With SAQG the figure was 5.94; with YSRT, not above 0.25; with DLYD, not above 0.25.

Consider QFCE, for which the enrichment ratio was not above 0.25. Consider SQPN, for which the enrichment ratio is not above 0.25. The figure for TRFW is not above 0.25. The figure for RLFM is not above 0.25.

NRYI: the enrichment ratio was not above 0.25.

On to KCES, for which the enrichment ratio is not above 0.25. With PMYY the figure was not above 0.25. Regarding FQNV, the enrichment ratio was not above 0.25.

EKTT: the enrichment ratio was not above 0.25.

For the variant TKEA, the enrichment ratio is not above 0.25. As to QTIH, the enrichment ratio was not above 0.25. The figure for SNNC is 18.6. The figure for HIGI is not above 0.25; for RKWT it is not above 0.25. The figure for DDYW is not above 0.25. With IKYQ, the enrichment ratio was not above 0.25. The figure for RQYR is not above 0.25; for IPFV it is not above 0.25. The figure for WFVM is not above 0.25. With QKAH the figure was not above 0.25; with PKRC, not above 0.25. In the case of YTYM, the enrichment ratio is not above 0.25.
